US11365205B2 (Aurigene Discovery Technologies Limited, priority 2018, dated 2022)

These molecules were tested against PRMT5/MEP50 Complex (Homo sapiens (Human), UniProt O14744) (assay: PRMT5 inhibition based on TR-FRET assay). Conditions: 32 nM PRMT5:MEP50, 50 nM Histone-H4 peptide, 1 μM SAM.
Format: biochemical
Description: PRMT5 Inhibition Based on TR-FRET Assay:
Protein arginine methyltransferase 5 (PRMT5) is a type II arginine methyltransferase that catalyze mono- and symmetric demethylation on arginine residues of histone or non-histone proteins in presence of S-adenosylmethionine (AdoMet or SAM) a cofactor responsible for donating the methyl group. PRMT5 is reported to be overexpressed in several human cancers. To identify compounds that inhibit the PRMT5 and decrease its activity, a TR-FRET based assay has been established. Time-resolved fluorescence resonance energy transfer (TR-FRET) HTS assays are homogeneous proximity assays where the interaction of two dye-labeled binding partners is detected by the energy transfer between a donor and an acceptor dye and the subsequent light emission by the acceptor dye. PRMT5 catalyzes Histone H4 peptide which is biotin tagged to the Lysine amino acid at carboxyl end, in presence of S-adenosyl-1-methionine (SAM) to methylate the peptide. The antibody specific to mono methylated H4 peptide (H4R3) with Ig conjugate binds to the methylated peptide, indirectly binding to the Europium lanthanide. SureLight Allophycocyanin-Streptavidin binds to the biotin tag of the peptide, therefore accepting the energy transferred from the Europium lanthanide. This energy transfer between Europium to SureLight Allophycocyanin is a direct measure of the activity/inhibition of the PRMT5 enzyme.
Assay buffer: 20 mM BICINE (pH 7.6), 25 mM NaCl, 2 mM DTT, 0.01% Tween-20 and 0.01% BSA.
The compound dilutions were prepared as 7.5% DMSO stock solutions in assay buffer. To 2 μL (7.5×) of test compound, 5 μL of PRMT5 enzyme prepared in assay buffer (Final concentration of 32 nM in 15 μL reaction volume) was added and allowed for 30 minutes pre-incubation time in a white polystyrene 384-well plate at room temperature. […] The plates were then read on Victor-3 with Excitation at 340 nm and Emissions collected at 615 and 665 nm in TR-FRET protocol. […]

Sequence of UniProt O14744 (O14744 whole entry): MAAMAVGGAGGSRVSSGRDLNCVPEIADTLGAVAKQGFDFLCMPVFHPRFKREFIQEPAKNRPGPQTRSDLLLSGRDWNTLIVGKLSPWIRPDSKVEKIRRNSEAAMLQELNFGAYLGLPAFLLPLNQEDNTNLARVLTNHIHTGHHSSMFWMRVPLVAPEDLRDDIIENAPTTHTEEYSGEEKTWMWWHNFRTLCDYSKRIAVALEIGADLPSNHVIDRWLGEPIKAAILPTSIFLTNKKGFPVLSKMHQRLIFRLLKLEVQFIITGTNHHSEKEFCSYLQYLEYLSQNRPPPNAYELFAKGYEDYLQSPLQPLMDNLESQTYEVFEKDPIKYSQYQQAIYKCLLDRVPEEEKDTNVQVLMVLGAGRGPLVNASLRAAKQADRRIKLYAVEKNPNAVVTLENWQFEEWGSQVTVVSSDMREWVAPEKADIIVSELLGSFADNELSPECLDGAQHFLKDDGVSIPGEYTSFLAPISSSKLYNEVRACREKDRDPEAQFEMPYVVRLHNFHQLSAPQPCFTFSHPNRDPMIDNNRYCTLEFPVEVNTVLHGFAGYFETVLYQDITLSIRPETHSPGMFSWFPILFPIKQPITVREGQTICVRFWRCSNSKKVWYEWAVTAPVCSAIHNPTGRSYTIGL
Sequence of UniProt O14744 (Q9BQA1 whole entry partner): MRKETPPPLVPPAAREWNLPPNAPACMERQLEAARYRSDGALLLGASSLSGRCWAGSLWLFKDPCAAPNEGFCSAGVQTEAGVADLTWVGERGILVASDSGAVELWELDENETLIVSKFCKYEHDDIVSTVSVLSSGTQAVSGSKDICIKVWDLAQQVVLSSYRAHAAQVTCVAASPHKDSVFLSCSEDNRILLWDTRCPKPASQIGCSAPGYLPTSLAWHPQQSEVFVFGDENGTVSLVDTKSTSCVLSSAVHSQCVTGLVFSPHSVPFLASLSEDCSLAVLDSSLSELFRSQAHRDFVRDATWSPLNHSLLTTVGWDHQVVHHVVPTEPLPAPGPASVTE

Row | IC50 [nM] | Structure (SMILES)
1 | 390 | Cc1cccc(CN2CCN(CC(O)CN3CCc4ccccc4C3)C2=O)n1 (stereo not drawn) [Example 22, 1-(3-(3,4-dihydroisoquinolin-2(1H)-yl)-2-hydroxypropyl)-3-((6-methylpyridin-2-yl)methyl)imidazolidin-2-one]
2 | 330 | CC1(C)C(=O)N(Cc2ccc(C#N)cc2)C(=O)N1CC(O)CN1CCc2ccccc2C1 (stereo not drawn) [Example 24, 4-((3-(3-(3,4-dihydroisoquinolin-2(1H)-yl)-2-hydroxypropyl)-4,4-dimethyl-2,5-dioxoimidazolidin-1-yl)methyl)benzonitrile]
3 | 100 | C=C(C)c1ccc(CN2CCN(CC(O)CN3CCc4ccccc4C3)C2=O)cn1 (stereo not drawn) [Example 26]
